# Read counts are not given, so values of variants with three or more changes are uncertain.
# B1: CPEB3 Ribozyme (parent)
# chain: UAACAGGGGGCCACAGCAGAAGCGUUCACGUCGCAGCCCCUGUCAGAUUCUGGUGAAUCUGCGAAUUCUGCUGUAUAUCUC
# Variants of: B1
# Test: self-cleavage, relative activity (ratio to wild type); higher = more cleavage; in vitro, sequencing
# Outline: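 After error-prone PCR and barcoding, CPEB3 ribozyme mutant libraries were transcribed with T7 RNA polymerase at 37°C for 5 hours, then given 15 min with DNase I before an EDTA stop, and they cleaved during both steps. Reverse transcription with template switching preceded Illumina sequencing. Relative activity divides a variant's cleaved/total read fraction by the unmutated ribozyme's. At least 5 reads were required per variant, and three batches were averaged.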
row,Variant,self-cleavage
1,UAACAGGGGGCCACAGCAGAAGCGCUCACGUCGCUGCCCCUGUCGGAUUCUGGUGAAUCUGCGAAUUCUGCUGUAUAUCUC [U25C A35U A45G],0.08
2,UAACAGGGGGCCACAGCAGAAGCGCUCACGUCGCUGCCCCUGUCAGGUUCUGGUGAAUCUGCGAAUUCUGCUGUAUAUCUC [U25C A35U A47G],0.16
3,UAACAGGGGGCCACAGCAGAAGCGCUCACGUCGCUGCCCCUGUCAGAUUCUGGUGAAUCUGCGAGAUCUGCUGUAUAUCUC [U25C A35U A65G U66A],0.18
4,UAACAGGGGGCCACAGCAGAAGCGCUCACGUCGCUGCCCCUGUCAGAUUCUGGUGAAUCUGCCAACUCUGCUGUAUAUCUC [U25C A35U G63C U66C],0.09
5,UAACAGGGGGCCACAGCAGAAGCGCUCACGUCGCUGCCCCCGUCAGAUUCUGGUGAAUCUGCGAAUUCAGCUGUAUAUCUC [U25C A35U U41C U69A],0.04
6,UAACAGGGGGCCACAGCAGAAGCGCUCACGUCGCUGCCCCUGUCAGAUUCUGGUGAAUCAGCGAAUUCUGCUGUAUAUGUC [U25C A35U U60A C79G],0.13
7,UAACAGGGGGCCACAGCAGAAGCGCUCACGUCGCUGCCCCUGUCAGAUUCUGGUGAAUCUGCGAACUCUGCUGUAAAUCUC [U25C A35U U66C U76A],0.09
8,UAACAGGGGGCCACAGCAGAAGCGCUCACGUCGCAGCCCCUGUCGGGUUCUGGUGAAUCUGCGAAUUCUGCUGUAUAUCUC [U25C A45G A47G],0.1
9,UAACAGGGGGCCACAGCAGAAGCGCUCACGUCGCAGCCCCUGUCGGAUUCUGGUGGGUCAGCGAACUCUACUGUAUAUCUC [U25C A45G A56G A57G U60A U66C G70A],0.19
10,UAACAGGGGGCCACAGCAGAAGCGCUCACGUCGCAGCCCCUGUCGGAUCCUGGUGAAUCUGCGAAUUCUGCUGUAUAUCUC [U25C A45G U49C],0.17
11,UAACAGGGGGCCACAGCAGAAGCGCUCACGUCGCAGCCCCUGUCGGAUCCUGGUGAAUCUGCGAAUUCUGCUGUGUAUCUC [U25C A45G U49C A75G],0.17
12,UAACAGGGGGCCACAGCAGAAGCGCUCACGUCGCAGCCCCUGUCGGAUCCUGGUGAAUCUGCGAAUUCUGCUGUAUAUCCC [U25C A45G U49C U80C],0.11
13,UAACAGGGGGCCACAGCAGAAGCGCUCACGUCGCAGCCCCUGUCGGAUUCCGGUGAAUCUGAGAAUUCUGCUGUAUAUCUC [U25C A45G U51C C62A],0.06
14,UAACAGGGGGCCACAGCAGAAGCGCUCACGUCGCAGCCCCUGUCGGAUUCCGGCGAAUCUGCGAAUUCUGCAGUAUAUCUC [U25C A45G U51C U54C U72A],0.05
15,UAACAGGGGGCCACAGCAGAAGCGCUCACGUCGCAGCCCCUGUCUGAUUCCGGUGGAUCUGCGAAUUCUGCUGUAUAUCUC [U25C A45U U51C A56G],0.13
16,UAACAGGGGGCCACAGCAGAAGCGCUCACGUCGCAGCCCCUGUCUGAUUCGGGCGAAUCUGCGAAUUCUGCUGUAUAUCUC [U25C A45U U51G U54C],0.03
17,UAACAGGGGGCCACAGCAGAAGCGCUCACGUCGCAGCCCCUGUCUGAUUCUGGUGAAUCUGCGAAUUCAGCUGUAUAUCUC [U25C A45U U69A],0.26

row,Variant,self-cleavage
1,UAACAGGGGGCCACAGCAGAAGCGCUCACGUCGCAGCCCCUGUCAGGUUCUGAUGAGUCUGCGAAUUCUGCUGUAUAUCUC [U25C A47G G53A A57G],0.17
2,UAACAGGGGGCCACAGCAGAAGCGCUCACGUCGCAGCCCCUGUCAGGUUCUGGUGAAUCUUCGAAUUCUACUGAAUAUCUC [U25C A47G G61U G70A U74A],0.1
3,UAACAGGGGGCCACAGCAGAAGCGCUCACGUCGCAGCCCCUGUCAGGUUCCGGUGAAUCAGCGAAUUCUGCUGUAUAUCUC [U25C A47G U51C U60A],0.13
4,UAACAGGGGGCCACAGCAGAAGCGCUCACGUCGCAGCCCCUGUCAGGUUCUGGUGAAACUGCGAAUUCUGCUGUAUAUCUC [U25C A47G U58A],0.06
5,UAACAGGGGGCCACAGCAGAAGCGCUCACGUCGCAGCCCCUGUCAGGUUCUGGUGAAUCUGCGAAUACUGCUGUAUAUCUC [U25C A47G U67A],0.07
6,UAACAGGGGGCCACAGCAGAAGCGCUCACGUCGCAGCCCCUGUCAGGUUCUGGUGAAUCUGCGAAUUCUGCCGUACAUCUC [U25C A47G U72C U76C],0.21
7,UAACAGGGGGCCACAGCAGAAGCGCUCACGUCGCAGCCCCUGUCAGUUUCUGGUGAAUCUGCGUGUUCUGCUGUAUAUCUC [U25C A47U A64U A65G],0.12
8,UAACAGGGGGCCACAGCAGAAGCGCUCACGUCGCAGCCCCUGUCAGUUCCCGGUGAGUCUGCGAAUUCUGCUGUAUAUCUC [U25C A47U U49C U51C A57G],0.16
9,UAACAGGGGGCCACAGCAGAAGCGCUCACGUCGCAGCCCCUGUCAGUUUCUGGUGAACCUGCGAAUUCUGCUGUAUAUCCC [U25C A47U U58C U80C],0.28
10,UAACAGGGGGCCACAGCAGAAGCGCUCACGUCGCAGCCCCUGUCAGUUUCUGGUGAAUCUGCGAAUUCCGCUGUAUAUCUC [U25C A47U U69C],0.46
11,UAACAGGGGGCCACAGCAGAAGCGCUCACGUCGCAGCCCCUGUCAGAUUCUGGUGCAGCUGCGAGUACUGCUGUAUAUCUC [U25C A56C U58G A65G U67A],0.13
12,UAACAGGGGGCCACAGCAGAAGCGCUCACGUCGCAGCCCCUGUCAGAUUCUGGUGGAUCUGCGAGUUCUGCUGUAUAUCUC [U25C A56G A65G],0.31
13,UAACAGGGGGCCACAGCAGAAGCGCUCACGUCGCAGCCCCUGUCAGAUUCUGGUGGAUCUGCGAAUCCUGCUGUACAUCUC [U25C A56G U67C U76C],0.32
14,UAACAGGGGGCCACAGCAGAAGCGCUCACGUCGCAGCCCCUGUCAGAUUCUGGUGUAUCUGCGAAUUCUGCUGCACAUCUC [U25C A56U U74C U76C],0.25
15,UAACAGGGGGCCACAGCAGAAGCGCUCACGUCGCAGCCCCUGUCAGAUUCUGGUGAGUCUGCGGAUUCUGCUGUAUAACCC [U25C A57G A64G U78A U80C],0.2
16,UAACAGGGGGCCACAGCAGAAGCGCUCACGUCGCAGCCCCUGUCAGAUUCUGGUGAGUCUGCGUAUUCUGCUGUAUAUCUC [U25C A57G A64U],0.24
17,UAACAGGGGGCCACAGCAGAAGCGCUCACGUCGCAGCCCCUGUCAGAUUCUGGUGAGUCUGCGAUUUCUGCUGUACAUCUC [U25C A57G A65U U76C],0.08

# Reference: the RNAGym collection of RNA variant scans (doi:10.1093/nar/gkz1192)
